Assay results from PubChem BioAssay AID652104 (National Center for Advancing Translational Sciences (NCATS), 2013).
About 7,200 (1.8%) of roughly 410,000 compounds were called active. The shares of active, inactive and inconclusive entries below differ from those in the screen. The call rests on the fitted dose curve; in most records, active means well fitted activation curve with a large enough effect; inconclusive means small, poorly fitted or top-dose-only effect, or another doubt; inactive means no such curve, though single readings can be large or run the other way. Potencies of inconclusive entries are left out as doubtful fits.

Test: qHTS of TDP-43 Inhibitors; further: nearly all actives have a fitted effect of over 50% in size; on growth rescue (activation): % of control where 0% means no effect
Settings: TDP-43 expressing yeast growth rescue, BacTiter-Glo, 24 h; growth rescue (activation): at 46.1 µM (top of the series) unless noted
Method in brief: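 Yeast cells expressing TDP-43 under galactose induction are exposed to compounds for 24 hr at 30 deg C. BacTiter-Glo luminescence measures growth, so protective compounds score as activators.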
Potency means the concentration at half of the fitted maximal effect; tags describe the fitted curve by direction and shape.

| Compound | Potency | growth rescue (activation) |
| --- | --- | --- |
| O=C(NC1=NCCS1)c1cccc(F)c1 | inconclusive [activator, partial curve] | – |
| COc1ccccc1C(=O)Nc1cccc(NC(=O)c2ccccc2C)c1 | – | inconclusive: 123% [activator] |
| COc1cccc(-c2nc(NC3CCCC3)c3ccccc3n2)c1O | inconclusive [activator, single point] | – |
| O=C(c1cccc(Oc2c(Cl)cccc2[N+](=O)[O-])c1)N1CCCCC1 | inconclusive [activator, partial curve] | – |
| COC(=O)c1ccc2nc(NC(=O)C(C)(C)C)sc2c1 | inconclusive [activator, partial curve] | – |
| C=CCn1c(=O)c(C(=O)OCC)c(O)c2ccccc21 | inconclusive [activator, single point] | – |
| Cc1nn(-c2ccccc2)cc1/C=N/O | inconclusive [activator, partial curve] | – |
| CCCn1c2ccccc2c2cnn(CC(=O)N3CCN(c4ccccc4)CC3)c(=O)c21 | inconclusive [activator, partial curve] | – |
| CCOC(=O)C1=NNC(C(=O)c2ccc(Cl)cc2)C1c1ccccc1 (centres undefined) | inactive | – |
| O=C(Nc1ccc(C(F)(F)F)cc1Cl)c1ccc(Cn2cc(Br)cn2)o1 | inconclusive [activator, single point] | – |
| Cc1ccc(S(=O)(=O)Cc2ccc(C(=O)NCCc3ccc(Cl)cc3)o2)cc1 | inconclusive [activator, partial curve] | – |
| COc1ccccc1NC(=S)N1CC(C)(C)C1=O | inconclusive [activator, partial curve] | – |
| COc1ccc(-c2ncccc2OC(=O)C23CC4CC(CC(C4)C2)C3)cc1 | inconclusive [activator, single point] | – |
| CC(=O)/C(=C/c1ccccc1)C(=O)Nc1ccccc1C | active: 2.51 µM | – |
| COC(=O)c1ccc(N)c(N=CC2=C(O)CC(C)(C)CC2=O)c1 | inconclusive [activator, partial curve] | – |
| Cc1[nH]n(C)c(=O)c1C(=O)c1c(-c2ccccc2Cl)noc1C | inconclusive [activator, partial curve] | – |
| C=CCn1c(C)cc(C(=O)COc2ccc(C)nc2[N+](=O)[O-])c1C | inconclusive [activator, single point] | – |
| O=S(=O)(NCc1csc(-c2cccs2)n1)c1ccc(Cl)cc1 | inconclusive [activator, partial curve] | – |
| Oc1ccc(N=Nc2ccc3c(c2)OCCO3)c2cccnc12 | inconclusive [activator, single point] | – |
| CN(Cc1ccccc1)Cc1cc(=O)oc2ccc3ccccc3c12 | inconclusive [activator, partial curve, poor fit] | – |
| COCCCNC(=O)c1cc2c(-c3ccc(Cl)cc3)nn(C)c2s1 | – | inconclusive: 31.8% [activator] |
| CC1(C)Cc2cccc(OCC(=O)Nc3ccc(S(N)(=O)=O)cc3)c2O1 | inactive | – |

| Compound | Potency | growth rescue (activation) |
| --- | --- | --- |
| CCc1ccc(NC(=O)CCn2cccc2)cc1 | inconclusive [activator, partial curve] | – |
| COc1ccc(OC)c(C(c2nnnn2CCc2ccccc2)N2CCN(c3ccccc3)CC2)c1 (centres undefined) | inconclusive [activator, single point] | – |
| COc1cccc(CNC(=O)N2CCN(c3ccccc3Cl)CC2)c1 | inconclusive [activator, partial curve] | – |
| CSc1ccc(C(=O)C2CCCN(C(=O)c3ccsc3)C2)cc1 (centres undefined) | inconclusive [activator, partial curve] | – |
| Cc1cccc(-n2cc(-c3ccccc3)c3c(NC4CCCC4)ncnc32)c1 | active: 20 µM | – |
| C=Cc1ccc(Cn2nc(-c3ccc(C)cc3)ccc2=O)cc1 | inconclusive [activator, full curve] | – |
| Cc1cc(NC(=O)CSc2nc(C3CCCCC3)nc3ccccc23)no1 | inconclusive [activator, partial curve] | – |
| C=CCSc1nc2sc(C)c(C)c2c(=O)n1CC=C | inconclusive [activator, partial curve] | – |
| Cc1nc(-n2nnc3ccccc32)c2c3c(sc2n1)CCCC3 | inconclusive [activator, single point] | – |
| CCN=c1scc(C)n1/N=C/c1cc(Br)c(O)c(Br)c1 | active: 3.16 µM | – |
| CCN(CC)S(=O)(=O)c1ccc(Cl)c(C(=O)Nc2ccc(Cl)cc2[N+](=O)[O-])c1 | inconclusive [activator, partial curve, poor fit] | – |
| O=C(O)CCn1c(=O)c2cccn2c2cccnc21 | inactive | – |
| CN(C)/N=C/c1ccc(P(c2ccc(/C=N/N(C)C)o2)c2ccc(/C=N/N(C)C)o2)o1 | inconclusive [activator, single point] | – |
| COc1cc(C=O)ccc1OCc1ccccc1Br | active: 11.2 µM | – |
| Cc1cccc(Nc2nnc(SCC3CCCCO3)s2)c1 (centres undefined) | inconclusive [activator, single point] | – |
| COc1ccc(CCNC(=O)COC(=O)/C=C/c2cccc(F)c2)cc1 | inconclusive [activator, partial curve] | – |
| Cc1ccccc1/C(N)=N/OC(=O)c1cccs1 | – | inconclusive: -92.2% [activator] |
| CCOC(=O)c1c(-c2ccc(F)cc2)csc1/N=C/N(C)C | inconclusive [activator, single point] | – |
| O=C1CCCCC/C1=N/Nc1ccc(OCc2ccccc2)cc1 | inconclusive [activator, partial curve] | – |
| O=[N+]([O-])c1cccc(C(=Nc2ccc(Cl)cc2)NO)c1 | inconclusive [activator, single point] | – |
| CCc1ccc(CN2CCc3nc(Nc4ccccc4)ncc3C2)cc1 | inactive | – |
| Cc1ccc(C(=O)NCC(=O)N(C)Cc2ccc(Cl)cc2Cl)s1 | active: 8.91 µM | – |
